Experimental data taken from article PMC3904923, “Pivoting between Calmodulin Lobes Triggered by Calcium in the Kv7.2/Calmodulin Complex” (PLoS ONE, 2014).

What was measured:
[1] = molecular target: T1, dansylated calmodulin (rat, UniProt P0DP30, dansyl group covalently bound to CaM (position not given)); experiment: other fluorescence titration; 12.5 nM D-CaM, ligand added incrementally, enhancement of dansyl emission; D-CaM binding buffer with 3.9 µM free Ca2+ (9.63 mM Ca2+, 2 mM Mg2+, 10 mM EGTA, pH 7.4); apparent affinity (EC50 of a Hill fit); settings: both partners purified
T1 construct: calmodulin, rat brain, NM_017326; also called D-CaM; dansyl-CaM

[2] = molecular target: T1, dansylated calmodulin; experiment: other fluorescence titration; 12.5 nM D-CaM, ligand added incrementally, enhancement of dansyl emission; 25 mM Tris-HCl, 120 mM KCl, 5 mM NaCl, 2 mM MgCl2, 10 mM EGTA, pH 7.4; no free Ca2+; apparent affinity (EC50 of a Hill fit); settings: both partners purified

B1: rat KCa2.2 (SK2) CaM binding domain ([…]) (domain or fragment)
chain: not shown
notes: cDNA from John P. Adelman; also called SK2 CaMBD; source: purified as described [9]; not shown: 6xHis, C-terminal, kept
How did the EC50 [1] turn out when B1 was run?
Its EC50 is 9.2 nM.

What about the EC50 [2] of the same binder?
The EC50 was 13.7 nM.
